# Results as given in the supplement of paper PMC12217912.
# This is one part of the list. The full chains were built here from the parent and the listed change. Inactive controls read about 0.05.
# B1: TEV protease; numbered along this chain (parent)
# chain: MGESLFKGPRDYNPISSSICHLTNESDGHTTSLYGIGFGPFIITNKHLFRRNNGTLVVQSLHGVFKVKDTTTLQQHLVDGRDMIIIRMPKDFPPFPQKLKFREPQREERICLVTTNFQTKSMSSMVSDTSCTFPSGDGIFWKHWIQTKDGQCGSPLVSTRDGFIVGIHSASNFTNTNNYFTSVPKNFMELLTNQEAQQWVSGWRLNADSVLWGGHKVFMVKPEEPFQPVKEATQL
# Variants of: B1
# Experiment: raw area under fraction-flipped curve 0-4 h after induction (AUC4h, not background-subtracted), DNA-recorder readout of cleavage of the substrate (dimensionless); higher = more cleavage of the substrate by the protease variant
# Settings: temperature: 34 °C; time window: 0-4 h after rhamnose induction
# Method: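 In vivo DNA recorder in E. coli TOP10(DE3) ΔrhaA at 34 °C. Each TEVp single-site mutant (parent TEVp 0) is paired with a single-site variant of the 7-mer TEVs (canonical ENLYFQ|S). The substrate sits between flexible linkers in a Bxb1-sfGFP-TEVs-SsrA fusion, so cleavage stabilises Bxb1 and speeds flipping of a recombination array, read by NGS. The value is the raw area under the fraction-flipped curve over 0-4 h after rhamnose induction (AUC4h), with ≥20 reads per time point. It is not background-subtracted; inactive controls average about 0.047.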
# 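Further: Bxb1 expression induced with 0.2% (w/v) L-rhamnose at OD600 near 0.5, cultures sampled hourly, flipped fraction per protease–substrate barcode pair counted by paired-end Illumina sequencing.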
Variant,area with substrate EALYFQS,area with substrate ECLYFQS,area with substrate EELYFQS,area with substrate EHLYFQS,area with substrate EILYFQS,area with substrate EKLYFQS,area with substrate ELLYFQS,area with substrate EPLYFQS,area with substrate EQLYFQS,area with substrate ESLYFQS,area with substrate EVLYFQS,area with substrate EYLYFQS,area with substrate EDLYFQS,area with substrate EFLYFQS,area with substrate EGLYFQS,area with substrate EMLYFQS,area with substrate ETLYFQS,area with substrate EWLYFQS,area with substrate ERLYFQS
S18D,0.102,0.0871,0.0852,0.101,0.0852,0.101,0.071,0.13,0.0842,0.0947,0.0783,0.0974,–,–,–,–,–,–,–
Y34D,0.0687,0.0426,–,0.0638,–,0.0476,–,–,0.0744,0.0728,–,–,0.0998,0.0712,0.0629,0.0683,0.0718,0.0459,–
I36G,0.0612,–,–,–,–,0.0515,–,–,0.0269,0.0418,0.0383,–,–,0.0413,0.0446,–,–,–,–
V57P,0.0466,–,–,0.0468,0.0419,–,0.0452,–,0.0462,0.0482,0.0417,0.0527,0.0407,–,0.0367,0.0461,0.105,–,0.0506
V57H,0.0943,–,–,0.113,–,0.129,–,0.138,–,0.097,0.113,–,0.142,–,–,0.117,–,–,0.11
P9S,0.137,–,0.113,0.0934,–,–,–,0.121,0.0727,0.0871,–,–,–,–,–,–,–,0.0489,–
P9E,0.0664,0.0792,–,–,0.0589,0.0775,–,0.0964,0.0768,0.0889,0.0735,–,0.107,–,0.0946,–,–,0.0655,0.101
F41E,0.0654,0.0584,–,0.0511,–,–,0.0485,–,–,0.0589,–,0.0592,–,0.0603,–,0.0626,–,–,0.0553
F41Y,0.121,0.107,–,0.113,0.0994,–,0.102,0.0959,0.118,0.102,0.0814,–,0.121,0.0933,0.109,0.112,0.109,0.0923,0.0906
D79C,0.122,–,–,–,0.0896,0.0913,–,0.125,0.105,0.0737,–,–,–,–,0.097,–,–,0.079,–
D79R,0.0958,0.0114,0.0968,0.12,0.088,0.0349,0.062,0.0757,–,0.0827,0.0815,0.102,0.0928,0.065,0.0729,0.0643,0.0789,–,–
D79Y,0.0934,0.0933,–,0.133,0.0712,–,0.0752,–,–,0.107,–,–,–,–,–,–,–,0.0809,–
L33T,0.149,0.12,0.117,0.131,0.129,0.128,–,–,0.174,0.11,–,–,–,–,–,–,–,–,0.145
F6L,0.128,0.0566,–,–,0.0569,–,–,0.0757,0.0927,0.0618,0.0799,–,–,–,0.0417,0.0633,0.0173,–,–
Q75Y,0.0803,0.0693,0.065,0.0787,0.0629,–,–,0.0804,0.0569,0.0747,0.0497,0.0674,0.0824,–,0.056,0.0746,0.0669,–,0.069
